Where a chain is given by its changes, count along the chain named. In names and notes the source's numbering stands. ± gives the standard deviation of the averaged measurements. Laboratory Escherichia coli strains with one amino-acid change in an essential protein, pooled on minimal glucose agar with carbenicillin or gentamicin at twice the control MIC (plus kanamycin and chloramphenicol for the plasmids), 48 h. Fold change of barcode share against drug-free plates; higher = less susceptible. Active = above 20 in both replicates (the paper's putatively resistant). '<' = one read or none on drug, '>' = one read or none on a drug-free plate. Shares are relative, so most strains fall below 1 when a few take over. Listed are strains with at least 15 reads on both drug-free plates, and hits; most hits rest on fewer reference reads. Replicate rank correlation about 0.5. Edits are read from barcodes.
B1: metL V126D (protein)
chain: MSVIAQAGAKGRQLHKFGGSSLADVKCYLRVAGIMAEYSQPDDMMVVSAAGSTTNQLINWLKLSQTDRLSAHQVQQTLRRYQCDLISGLLPAEEADSLISAFVSDLERLAALLDSGINDAVYAEVDGHGEVWSARLMSAVLNQQGLPAAWLDAREFLRAERAAQPQVDEGLSYPLLQQLLVQHPGKRLVVTGFISRNNAGETVLLGRNGSDYSATQIGALAGVSRVTIWSDVAGVYSADPRKVKDACLLPLLRLDEASELARLAAPVLHARTLQPVSGSEIDLQLRCSYTPDQGSTRIERVLASGTGARIVTSHDDVCLIEFQVPASQDFKLAHKEIDQILKRAQVRPLAVGVHNDRQLLQFCYTSEVADSALKILDEAGLPGELRLRQGLALVAMVGAGVTRNPLHCHRFWQQLKGQPVEFTWQSDDGISLVAVLRTGPTESLIQGLHQSVFRAEKRIGLVLFGKGNIGSRWLELFAREQSTLSARTGFEFVLAGVVDSRRSLLSYDGLDASRALAFFNDEAVEQDEESLFLWMRAHPYDDLVVLDVTASQQLADQYLDFASHGFHVISANKLAGASDSNKYRQIHDAFEKTGRHWLYNATVGAGLPINHTVRDLIDSGDTILSISGIFSGTLSWLFLQFDGSVPFTELVDQAWQQGLTEPDPRDDLSGKDVMRKLVILAREAGYNIEPDQVRVESLVPAHCEGGSIDHFFENGDELNEQMVQRLEAAREMGLVLRYVARFDANGKARVGVEAVREDHPLASLLPCDNVFAIESRWYRDNPLVIRGPGAGRDVTAGAIQSDINRLAQLL
B2: metL V126P (protein)
chain: B1 chain with D126P
B3: metL M137A (protein)
chain: B1 chain with D126V, M137A
B4: metL M137W (protein)
chain: B1 chain with D126V, M137W
B5: metL M137Q (protein)
chain: B1 chain with D126V, M137Q
B6: metL M137D (protein)
chain: B1 chain with D126V, M137D
B7: metL M137P (protein)
chain: B1 chain with D126V, M137P

What follows are proteins tested against Escherichia coli (laboratory strain) (assay: barcode share on antibiotic plates over drug-free plates; higher = less susceptible). Conditions: antibiotic: carbenicillin; 2× MIC (3.1 µg/mL).
Method: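 A pool of E. coli strains, each edited to carry one amino-acid change in an essential protein, was grown for 48 h on minimal glucose agar with or without antibiotic; strain barcodes were sequenced; mean of two replicates.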

| Protein | fold change of barcode share |
| --- | --- |
| B1 | 0.438 ± 0.17 |
| B2 | 0.294 ± 0.073 |
| B3 | 0.816 ± 0.23 |
| B4 | 0.69 ± 0.08 |
| B5 | 0.697 ± 0.2 |
| B6 | 0.7895 ± 0.0033 |
| B7 | 0.476 ± 0.064 |

Same assay, conditions: antibiotic: gentamicin; 2× MIC (MIC 0.45 µg/mL)

| Protein | fold change of barcode share |
| --- | --- |
| B1 | < 0.00333 |
| B2 | 0.0069 ± 0.0049 |
| B3 | 0.0132 ± 0.013 |
| B4 | 0.00559 ± 0.0017 |
| B5 | 0.00899 ± 0.0056 |
| B6 | 0.008254 ± 6.9e-05 |
| B7 | 0.00597 ± 0.004 |
